# Results: a collection of fitness landscapes (doi:10.1126/science.1257360)
# The list shows a part of the results.
# B1: PhoQ; a variant is named by its letters at X, in order, P23837 (parent)
# chain: MKKLLRLFFPLSLRVRFLLATAAVVLVLSLAYGMVALIGYSVSFDKTTFRLLRGESNLFYTLAKWENNKLHVELPENIDKQSPTMTLIYDENGQLLWAQRDVPWLMKMIQPDWLKSNGFHEIEADVNDTSLLLSGDHSIQQQLQEVREDDDDAEMTHSVAVNVYPATSRMPKLTIVVVDTIPVELKSSYMVWSWFIYVLSANLLLVIPLLWVAAWWSLRPIEALAKEVRELEEHNRELLNPATTRELTSLVRNLNRLLKSERERYDKYRTTLTDLTHSLKTPLXXLQXXLRSLRSEKMSVSDAEPVMLEQISRISQQIGYYLHRASMRGGTLLSRELHPVAPLLDNLTSALNKVYQRKGVNISLDISPEISFVGEQNDFVEVMGNVLDNACKYCLEFVEISARQTDEHLYIVVEDDGPGIPLSKREVIFDRGQRVDTLRPGQGVGLAVAREITEQYEGKIVAGESMLGGARMEVIFGRQHSAPKDE
# Variants of: B1
# Test: enrichment ratio after two sorts for PhoP signalling (ratio (wild type AVST 3.29)); higher = more functional
# Conditions: with PhoP (E. coli)
row,Variant,enrichment ratio
1,WTFR,≤ 0.25
2,PCAW,≤ 0.25
3,QSMT,≤ 0.25
4,LSPV,≤ 0.25
5,SNWE,≤ 0.25
6,YASV,0.284
7,KNAM,≤ 0.25
8,FKYT,≤ 0.25
9,SMLW,≤ 0.25
10,RYQD,≤ 0.25
11,KGWQ,≤ 0.25
12,GWYC,≤ 0.25
13,FSDW,≤ 0.25
14,PFFT,≤ 0.25
15,KQRV,≤ 0.25
16,PQWK,≤ 0.25
17,DQVT,≤ 0.25
18,WHVL,≤ 0.25
19,WNMI,≤ 0.25
20,KRCS,2.43
21,TGDT,≤ 0.25
22,RWSH,≤ 0.25
23,IRQA,≤ 0.25
24,QCEW,≤ 0.25

row,Variant,enrichment ratio
1,AQFG,≤ 0.25
2,IAWI,≤ 0.25
3,TICI,2.26
4,LPKA,≤ 0.25
5,YSAF,≤ 0.25
6,RNFN,≤ 0.25
7,SYVH,≤ 0.25
8,TNAS,13.9
9,ETEG,≤ 0.25
10,KYVP,≤ 0.25
11,KIDI,≤ 0.25
12,FEMY,≤ 0.25
13,DSTD,≤ 0.25
14,IDFF,≤ 0.25
15,RLCA,≤ 0.25
16,AMVA,≤ 0.25
17,GVVI,≤ 0.25
18,SPGN,≤ 0.25
19,TICL,1.53
20,FCVR,≤ 0.25
21,TRLS,6.8
22,NFSH,≤ 0.25
23,GDRA,≤ 0.25
24,LENK,≤ 0.25

row,Variant,enrichment ratio
1,YTEF,≤ 0.25
2,RANN,≤ 0.25
3,YHGA,≤ 0.25
4,HQAP,≤ 0.25
5,DFRA,≤ 0.25
6,VHLT,≤ 0.25
7,GWHW,≤ 0.25
8,ASYH,0.342
9,SQIV,5.01
10,WELV,2.4
11,YKYW,≤ 0.25
12,QGMI,19.9
13,MDNP,≤ 0.25
14,THTW,≤ 0.25
15,YQYE,≤ 0.25
16,WKES,≤ 0.25
17,YFSD,≤ 0.25
18,MASF,2.55
19,PITK,≤ 0.25
20,LYKR,≤ 0.25
21,VQTK,≤ 0.25
22,IPAW,≤ 0.25
23,RGDQ,≤ 0.25
24,NYGT,≤ 0.25

row,Variant,enrichment ratio
1,RHCV,≤ 0.25
2,YIHR,≤ 0.25
3,VDGG,≤ 0.25
4,HTMR,≤ 0.25
5,KHNN,≤ 0.25
6,LDMK,≤ 0.25
7,IMKY,≤ 0.25
8,WEYG,≤ 0.25
9,ACIK,≤ 0.25
10,NQGG,≤ 0.25
11,TTKH,≤ 0.25
12,PQDY,≤ 0.25
13,GESD,≤ 0.25
14,HSEN,≤ 0.25
15,PCIP,≤ 0.25
16,AFDY,≤ 0.25
17,MENK,≤ 0.25
18,WQGC,≤ 0.25
19,TSWY,14.1
20,IIVQ,≤ 0.25
21,SCCK,14.3
22,WPMK,≤ 0.25
23,MHCS,≤ 0.25
24,IPAQ,≤ 0.25

row,Variant,enrichment ratio
1,VGWS,≤ 0.25
2,DCVG,≤ 0.25
3,FAST,≤ 0.25
4,FTFT,≤ 0.25
5,FTQN,≤ 0.25
6,HNSR,≤ 0.25
7,TVWS,1.2
8,TLVL,≤ 0.25
9,KTTI,≤ 0.25
10,WNWQ,≤ 0.25
11,VWPF,≤ 0.25
12,NFCE,≤ 0.25
13,DLTY,≤ 0.25
14,WIRL,≤ 0.25
15,TDLW,≤ 0.25
16,WQTD,≤ 0.25
17,MIAV,11.2
18,WQNL,≤ 0.25
19,RSDS,≤ 0.25
20,DSPI,≤ 0.25
21,FIKC,≤ 0.25
22,VPRN,≤ 0.25
23,KDFP,≤ 0.25
24,NGAQ,≤ 0.25

row,Variant,enrichment ratio
1,TMLL,1.48
2,RCWK,≤ 0.25
3,PRFP,≤ 0.25
4,VRIN,≤ 0.25
5,MMHF,≤ 0.25
6,NVFG,≤ 0.25
7,KGHG,≤ 0.25
8,IYCE,≤ 0.25
9,SIIC,≤ 0.25
10,AITW,6.06
11,QDFP,≤ 0.25
12,IRKI,≤ 0.25
13,REYK,≤ 0.25
14,TMPP,≤ 0.25
15,PCMQ,≤ 0.25
16,LSYD,≤ 0.25
17,YFVA,≤ 0.25
18,IFNA,≤ 0.25
19,QHRN,≤ 0.25
20,YWQN,≤ 0.25
21,FQMD,≤ 0.25
22,NEMP,≤ 0.25
23,TRIK,≤ 0.25
24,SIMV,13.6

row,Variant,enrichment ratio
1,HSMQ,9.41
2,RNMD,≤ 0.25
3,EYKD,≤ 0.25
4,PSFR,≤ 0.25
5,NQHS,≤ 0.25
6,IAGI,≤ 0.25
7,IRSI,≤ 0.25
8,AQHC,≤ 0.25
9,GYLC,0.277
10,RMDQ,≤ 0.25
11,GTHQ,≤ 0.25
12,PESE,≤ 0.25
13,IGGH,≤ 0.25
14,LRPK,≤ 0.25
15,IDTK,≤ 0.25
16,DHDK,≤ 0.25
17,LYRD,≤ 0.25
18,SESS,13.9
19,GKHG,≤ 0.25
20,MLMW,≤ 0.25
21,RNTG,≤ 0.25
22,GRFS,≤ 0.25
23,MMVQ,≤ 0.25
24,QIVG,≤ 0.25

row,Variant,enrichment ratio
1,SDAM,2.28
2,DQWM,≤ 0.25
3,GWHF,≤ 0.25
4,DLLW,≤ 0.25
5,CTFD,≤ 0.25
6,AWNP,≤ 0.25
7,RWVR,≤ 0.25
8,EGLC,≤ 0.25
9,TQWW,≤ 0.25
10,ESHH,≤ 0.25
11,TLQF,15.7
12,RCHL,≤ 0.25
13,YCQS,≤ 0.25
14,IRSA,≤ 0.25
15,EIFI,≤ 0.25
16,SNSC,8
17,DTEE,≤ 0.25
18,HKLK,≤ 0.25
19,PLVW,≤ 0.25
20,LTYK,≤ 0.25
21,QSLV,1.11
22,FLCS,≤ 0.25
23,FPRC,≤ 0.25
24,WHQR,≤ 0.25

row,Variant,enrichment ratio
1,SMVA,0.7
2,HRGC,≤ 0.25
3,ADPW,≤ 0.25
4,DSID,≤ 0.25
5,NGWP,≤ 0.25
6,THSK,≤ 0.25
7,MHAK,≤ 0.25
8,DDHS,≤ 0.25
9,LDSP,≤ 0.25
10,MRNP,≤ 0.25
11,DSLD,≤ 0.25
12,KYDW,≤ 0.25
13,ICYS,≤ 0.25
14,RPKP,≤ 0.25
15,QTNA,≤ 0.25
16,PMFE,≤ 0.25
17,HRNI,≤ 0.25
18,WGEY,≤ 0.25
19,KRPF,≤ 0.25
20,RVAQ,≤ 0.25
21,QCLM,≤ 0.25
22,MEFC,12.8
23,MDQS,≤ 0.25
24,SSRE,≤ 0.25

row,Variant,enrichment ratio
1,KFWH,≤ 0.25
2,AKTR,≤ 0.25
3,TVGC,6.28
4,QTMD,≤ 0.25
5,HMKT,≤ 0.25
6,KMYW,≤ 0.25
7,DFMG,≤ 0.25
8,PEHP,≤ 0.25
9,LAEM,≤ 0.25
10,AGHN,≤ 0.25
11,ALFG,≤ 0.25
12,QAKY,≤ 0.25
13,FFHL,≤ 0.25
14,IVQG,≤ 0.25
15,YGFR,≤ 0.25
16,MGFT,1.76
17,PHGN,≤ 0.25
18,FMTG,≤ 0.25
19,HRRN,≤ 0.25
20,INNL,≤ 0.25
21,LVWL,≤ 0.25
22,HLRK,≤ 0.25
23,TFED,≤ 0.25
24,QVFE,≤ 0.25

row,Variant,enrichment ratio
1,VGNQ,≤ 0.25
2,ITDQ,≤ 0.25
3,FIGM,≤ 0.25
4,KSQW,≤ 0.25
5,AEYA,≤ 0.25
6,HEPY,≤ 0.25
7,SMYD,≤ 0.25
8,QKLW,≤ 0.25
9,AVAR,9.7
10,WMPQ,≤ 0.25
11,DGWS,≤ 0.25
12,DSKN,≤ 0.25
13,PAYP,≤ 0.25
14,KYPI,≤ 0.25
15,AQLH,13.8
16,YGNG,≤ 0.25
17,WFQL,≤ 0.25
18,LLNW,≤ 0.25
19,WCDF,≤ 0.25
20,ADTC,≤ 0.25
21,YSLD,≤ 0.25
22,MGWR,≤ 0.25
23,PCGV,≤ 0.25
24,MISF,3.65

row,Variant,enrichment ratio
1,TGRS,≤ 0.25
2,ATGP,≤ 0.25
3,TRMN,≤ 0.25
4,RPNE,≤ 0.25
5,FTSC,≤ 0.25
6,RNNP,≤ 0.25
7,KQLM,≤ 0.25
8,HYLS,≤ 0.25
9,NLTG,≤ 0.25
10,IQET,≤ 0.25
11,SYCY,≤ 0.25
12,NVLF,≤ 0.25
13,DEVD,≤ 0.25
14,APLI,0.336
15,ACQA,≤ 0.25
16,HKSQ,≤ 0.25
17,VKWI,≤ 0.25
18,TRHM,≤ 0.25
19,GHND,≤ 0.25
20,GTFT,≤ 0.25
21,DIWG,≤ 0.25
22,RSGV,≤ 0.25
23,LNEI,≤ 0.25
24,LTTV,≤ 0.25

row,Variant,enrichment ratio
1,AVQL,≤ 0.25
2,YLKY,≤ 0.25
3,IMVE,≤ 0.25
4,PHDQ,≤ 0.25
5,PLQK,≤ 0.25
6,NYVE,≤ 0.25
7,ENRC,≤ 0.25
8,YNRA,≤ 0.25
9,QYCY,≤ 0.25
10,RFTD,≤ 0.25
11,ANSH,7.94
12,VPYV,≤ 0.25
13,SCAE,8.81
14,QCER,≤ 0.25
15,WQIV,≤ 0.25
16,QMFV,≤ 0.25
17,FQWC,≤ 0.25
18,RCEM,≤ 0.25
